Assay results: the supplement of paper PMC10126150
Sequences with one replicate were seen in a single cluster, so their values are uncertain.

Tested on: ATP
Test: switch fluorescence ratio, 500 uM ATP over buffer (Cy3 cluster intensity, sum of 5 cycles each) (fold (ratio)); higher = stronger signal-on switching upon ATP binding; sequences stand for … in TCGTCGGCAGCGTCAGATGTGTATAAGAGACAGTTTTTTTTTTTTTTTTTTTTTTTTT…TC
Details: aptamer strand: ATP DNA aptamer (quencher-CACCTGGGGGAGTATTGCGGAGGAAGG + anchor), 100 nM annealed; ATP concentration: 500 uM; one replicate
In short: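 Cy3-labelled switching-strand clusters on a modified Illumina MiSeq flow-cell were annealed to 100 nM quencher-labelled ATP aptamer, imaged in selection buffer, then imaged after 15 min with 500 uM ATP at 22 °C. Five buffer/ATP cycles ran, with NaOH stripping and re-annealing between them. The fluorescence ratio is summed target-cycle over summed buffer-cycle Cy3 intensity per cluster, averaged per switch-domain sequence. Clusters outside 100-1000 RFU were excluded.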
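Also: ATP exposure 15 min at 22 °C before imaging.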

| Sequence | switch fluorescence ratio |
| --- | --- |
| GTAAGGTGTT | 1.15 |
| TGGATCCGCA | 4.2 |
| TTCCCTCGGG | 1.12 |
| AGGGCCTGGT | 1.01 |
| GGGACCCGCT | 0.991 |
| AGGCTTACTG | 1.01 |
| GTACCCTAAC | 1.17 |
| CATGTCGCCC | 0.97 |
| AGTGAGTGGT | 0.935 |
| TTCTATGTGT | 0.995 |
| TTTGTTTCCG | 1.06 |
| TCGGGAAGGC | 1.1 |
| CATATACCTT | 1.29 |
| GCTACGCGCG | 1.05 |
| ATCTCTGCAT | 2.99 |
| TGGATGCCCG | 1.02 |
| ATGTCGTTGC | 1.03 |
| ATAGCGTAAT | 1.01 |
| GAAGCTCGGA | 0.925 |
| ACCGTCCCTT | 1.08 |
| CGTAAGGTCC | 1.01 |
| CTCGAAGGCT | 0.952 |
| CGTTTTATC | 0.979 |

| Sequence | switch fluorescence ratio |
| --- | --- |
| AAATTACTTT | 1.17 |
| CGAGTTGAGC | 1.01 |
| AATCGCGAGT | 1.03 |
| TGAGGCCAGG | 1.23 |
| GGTAGTATGA | 1.07 |
| CGATACCCTA | 0.989 |
| TGGAGGACCG | 1.05 |
| GAACGTTCGG | 1.02 |
| AGCTCCCCGT | 1.34 |
| GAGAGATAG | 1.05 |
| TGTAGATCTC | 1 |
| TAAGAGAAGG | 0.973 |
| CGGAGGACGC | 1.01 |
| GCATGGGGT | 1.03 |
| TTCAGGACCT | 1.01 |
| ATATAAGGAG | 0.98 |
| TCAGTCTAGA | 1.01 |
| TTAGAACAAA | 1 |
| GTGACACGTT | 1.01 |
| GTTCTCATCG | 1.01 |
| TGACTTTTGA | 1 |
| CTCAGATGTT | 0.98 |
| GAGTAAGGCG | 0.945 |

| Sequence | switch fluorescence ratio |
| --- | --- |
| GCTTGTGTCA | 0.994 |
| AGCCCGTCAA | 1.29 |
| AGGCCGCTGT | 0.956 |
| TTAGGAGACC | 0.98 |
| TTGATAAGGA | 0.992 |
| GCGTCGCTTA | 0.983 |
| TCAGAAAGGT | 0.987 |
| ATAAACGGCC | 1.04 |
| GCAAACGCGG | 1.07 |
| GGCATGGAGG | 1 |
| ATAGGTGGGC | 0.984 |
| GAGTGGCCAA | 0.879 |
| GGCCTAGCCG | 0.999 |
| TACCTAATTT | 0.986 |
| CACATTGAG | 0.987 |
| TAAGGCCAGC | 1.02 |
| CAGTGCAAAG | 1.03 |
| GAGGTCAGT | 0.985 |
| GTGGAGGCGA | 1 |
| ATGTCAAATG | 0.986 |
| TGTAAGAAAC | 0.978 |
| GCGGGCTAGA | 1.03 |
| ACCTAGCGCG | 1.02 |

| Sequence | switch fluorescence ratio |
| --- | --- |
| TCCTACTAGC | 1.38 |
| CTTCTGATGC | 1.55 |
| CGACCAAAC | 3.99 |
| ATAGGGGAAC | 1.03 |
| TAGTTGAATC | 0.957 |
| TGGGGACATG | 1.01 |
| GGGTACATCG | 1.04 |
| TACGGCCGTG | 1.01 |
| CCTGTCAAGA | 1.16 |
| CTTCGAACCC | 1.07 |
| AAGAGCCCAG | 1.06 |
| CGACACTCAT | 1.04 |
| GGCTCTTTGG | 0.97 |
| AACGCCTGCT | 1.01 |
| AGAATCATCG | 0.964 |
| AGGCCATCGC | 1.03 |
| TAAATGGTTA | 0.99 |
| GGCCTCCCAC | 1.69 |
| GGTTGCCGGC | 0.971 |
| ACGTTCGACA | 1.24 |
| AAATCAAGGC | 0.973 |
| GTTGATGGTA | 1.01 |
| TTTGTGAATA | 1.01 |

| Sequence | switch fluorescence ratio |
| --- | --- |
| AAAACGAGCC | 1.07 |
| GGGTATCGAC | 1.04 |
| CGGACATATT | 1.03 |
| TGGGTATACC | 0.991 |
| CCAAATCACA | 1.05 |
| CGTCGGTGCT | 0.985 |
| TACACATTCG | 0.978 |
| GGCCGGACCT | 1.11 |
| AACGTAAAAA | 1.14 |
| AGAAGTGGGC | 1.03 |
| TTAGAGAGCA | 1 |
| GGCTCTCGTG | 0.971 |
| GTGCTCAGGT | 1.06 |
| GGCACTTATG | 0.992 |
| GATGATTTCG | 1.02 |
| GCTCTACTCT | 1.09 |
| GGGTGTGTCT | 0.975 |
| TTTTCTCT | 1.01 |
| ATCGGAAAGT | 1.03 |
| GAGACGGGCC | 1.02 |
| AATAGTTT | 0.946 |
| CAACCCATGC | 1.43 |
| TGTAGTGGCA | 1.02 |

| Sequence | switch fluorescence ratio |
| --- | --- |
| GAGCAATCTT | 2.36 |
| TCCCCGGTCC | 1.38 |
| CGATGACCTG | 0.971 |
| GGGGTTCTCA | 0.987 |
| TCATACAGCG | 0.966 |
| TCGATTAAGG | 1 |
| GTATAGTGGG | 1.02 |
| TGTGGAGGAC | 0.995 |
| GTTGCACCAC | 0.992 |
| AGAAAAGGCG | 0.999 |
| TATCCCTTAG | 0.999 |
| TAGGTCTACT | 1.12 |
| TAATCGCGGT | 1.01 |
| GAAGGGGCAC | 0.973 |
| GGAGCTGTTG | 0.995 |
| TATTGGATAT | 0.984 |
| TCGGACGTAT | 1.09 |
| CACGGGTTTT | 1.02 |
| GATTCATTTT | 1.03 |
| CGGCGGGGCT | 0.997 |
| CTAGCCAAAA | 1.02 |
| CCTTGTACAT | 1.13 |
| TTATTAAATT | 0.995 |

| Sequence | switch fluorescence ratio |
| --- | --- |
| TCAGGGTTCC | 1.01 |
| GTCTTACGCG | 0.971 |
| CCCCGACCCG | 1.09 |
| CTCCGGGCCC | 1.18 |
| TGGCCCATGG | 1.04 |
| GAGGATTAAG | 1.03 |
| GCGAAGATGC | 1.08 |
| CTATACGAGC | 1.01 |
| CCGAATGCGG | 1.03 |
| AGTTTCCGGT | 0.963 |
| AGGGTAATAA | 0.999 |
| TTTCGTTGT | 1.02 |
| TTGCACGCAA | 2.22 |
| AAACTCTCTA | 0.991 |
| GATTCAAATA | 1.02 |
| CGAGGGTGCC | 1.06 |
| AGATGGGACA | 1.04 |
| AACATGGTAG | 0.989 |
| TACGGCTTGC | 1.06 |
